This passage reports activity change, negative = inhibition results from PubChem BioAssay AID1745853 (National Center for Advancing Translational Sciences (NCATS), 2022).

The other results are listed elsewhere or left out. Shown are side measurements of this screen, not its main read-out; they come without a call.

Holding throughout (test): Primary Screen for Target Class Profiling of Small Molecule Inhibitors of Methyltransferases
Test [1] has as its target Glycine N-methyltransferase (Homo sapiens) (UniProt Q14749). The conditions noted are these: purified enzyme, MTase-Glo SAH luminescence; measured here: GNMT inhibition; at 40 µM; stronger effect = lower value. The procedure, abridged:
(§1)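 Each enzyme was reacted with SAM and its substrate, with compounds tested once at 40 uM; SAH formed was read by MTase-Glo luminescence.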

Test [2] has as its target Guanidinoacetate N-methyltransferase (Homo sapiens) (UniProt Q14353). Particulars: purified enzyme, MTase-Glo SAH luminescence; measured here: GAMT inhibition; at 40 µM; stronger effect = lower value. The procedure, abridged: as §1
Test [3] addresses Histamine N-methyltransferase (Homo sapiens) (UniProt P50135). The conditions noted are these: purified enzyme, MTase-Glo SAH luminescence; measured here: HNMT inhibition; at 40 µM; stronger effect = lower value. A digest of the protocol: as §1
For test [4], the target named is Nicotinamide N-methyltransferase (Homo sapiens) (UniProt P40261). The conditions noted are these: purified enzyme, MTase-Glo SAH luminescence; measured here: NNMT inhibition; at 40 µM; stronger effect = lower value. A digest of the protocol: as §1
Test [5] has as its target Phenylethanolamine N-methyltransferase (Homo sapiens) (UniProt P11086). The conditions noted are these: purified enzyme, MTase-Glo SAH luminescence; measured here: PNMT inhibition; at 40 µM; stronger effect = lower value. The procedure, abridged:
as §1
% is scaled to controls: 0 for no effect and ±100 for the full control effect.

Regarding `CC(C(=O)O)c1ccc2c(c1)[nH]c1ccc(Cl)cc12` (stereo not drawn), the activity change, negative = inhibition in test [1] is -42.2%; in test [2], -2.57%; in test [3], 9.27%; in test [4] it was -14.5%; in test [5] it was 2.23%.
As to `CC(C)CCn1c(=O)c2ccccc2n2c(SCC(=O)NC(C)C)nnc12`, the activity change, negative = inhibition in test [1] was 5%; in test [2], 1.13%; in test [3], 4.56%; in test [4] it was 3.91%; in test [5] it was 8.01%.
Consider `COC(=O)c1ncn2c1C(=O)N(Cc1ccccc1F)C(C)(C(=O)NC1CCCC1)C2` (stereo not drawn), for which the activity change, negative = inhibition in test [1] was -3.38%; in test [2], -2.13%; in test [3], -9.45%; in test [4] it was -5.25%; in test [5] it was -5.97%.
Consider `COc1ccc(CNC(=O)C(C)n2ccc3cc(S(=O)(=O)N4CCCC4)ccc32)cc1` (stereo not drawn), for which the activity change, negative = inhibition was 0.19% in test [1]; 4.96% in test [2]; -1.56% in test [3]; -5.57% in test [4]; -0.256% in test [5].
For `CCC(C)NC(=O)c1ccc2c(=O)n(CCC(C)C)c3nn(CC(N)=O)c(=O)n3c2c1` (stereo not drawn), in that order: 3.19%, 0%, 1.12%, 4.21% and 3.97%.
The like results for `O=S(=O)(c1ccccc1)c1nnn2c1nc(NCc1ccc(Cl)cc1)c1ccccc12` were, in that order, 4.06%, 0.691%, 9.3%, 4.96% and 0.958%.
Turning to `CC(=O)N1CCN(C(=O)c2ccc3nnc(CC4CC4)n3c2)CC1`, the activity change, negative = inhibition is -7.34% in test [1]; -13.5% in test [2]; -4.84% in test [3]; -8.65% in test [4]; 1.87% in test [5].
`CS(=O)(=O)N(C1CC1)C1CCOC2(CCN(C(=O)NCc3ccccc3)CC2)C1` (stereo not drawn): the activity change, negative = inhibition in test [1] was -2.97%; in test [2] it was -6.78%; in test [3], -2.19%; in test [4], -13.3%; in test [5], -7.49%.
Turning to `Cc1cccc(C)c1NC(=O)C(C)N` (stereo not drawn), the activity change, negative = inhibition in test [1] was 2.18%; in test [2], 10.1%; in test [3], 10.4%; in test [4], -4.65%; in test [5], 1.58%.
For `Cc1ccc(C)c(N2C(=O)c3cc4oc(C)cc4n3CC2(C)C(=O)NC2CCCCCC2)c1` (stereo not drawn), the activity change, negative = inhibition was -1.04% in test [1]; 0% in test [2]; -4.49% in test [3]; 2.05% in test [4]; -1.01% in test [5].
In the case of `COc1ccc(CNC(=O)C[C@@H]2O[C@H](Cn3cc(CN(C)Cc4ccccc4)nn3)[C@@H](O)[C@H]2O)cc1`, the activity change, negative = inhibition in test [1] was -3.84%; in test [2] it was -5.65%; in test [3], -2.88%; in test [4] it was -5.38%; in test [5], -3.75%.
For `CC(C)=CCC/C(C)=C/COCC1OC(n2ccc(=O)[nH]c2=O)C(O)C1O` (stereo not drawn), in that order: 0.145%, 2.27%, 9.1%, -9.47% and -5.58%.
As for `O=C(O)C1CCCNC1` (stereo not drawn), the activity change, negative = inhibition in test [1] is 2.22%; in test [2], 5.54%; in test [3], 4.72%; in test [4], -6.26%; in test [5] it was -0.369%.
`O=C(Cc1ccc(F)cc1)N1CCC2(COc3ccncc3[S+](=O)([O-])N2)C1` (stereo not drawn): the activity change, negative = inhibition is -4.01% in test [1]; -4.78% in test [2]; -3.04% in test [3]; -5.53% in test [4]; -1.92% in test [5].
For `Cc1ccc(CNC(=O)CSc2nnc3n(CC(C)C)c(=O)c4ccc(C(=O)NC(C)C)cc4n23)cc1`, the activity change, negative = inhibition in test [1] was -4.12%; in test [2], -11.1%; in test [3] it was 4.58%; in test [4] it was -4.91%; in test [5], -5.63%.
Regarding `CCC(C(=O)NC(=O)NC(C)=O)c1ccccc1` (stereo not drawn), the activity change, negative = inhibition in test [1] was -1.48%; in test [2], 1.73%; in test [3], 5.96%; in test [4], -9.05%; in test [5], 0.756%.
Take `CN(C)c1nc(NC2CCC(NC(=O)c3ccc(F)c(F)c3)CC2)nc2ccccc12` (stereo not drawn): the activity change, negative = inhibition in test [1] is 2.7%; in test [2], 14.3%; in test [3], -62.9%; in test [4], -35.9%; in test [5], -13.1%.
As to `CCCN1C(=O)c2c(C(=O)NCc3ccc(F)cc3)ncn2CC1(C)C(=O)NCc1ccc(F)cc1` (stereo not drawn), the activity change, negative = inhibition was found to be 2.71% in test [1]; 0% in test [2]; 5.16% in test [3]; 0.544% in test [4]; 5.83% in test [5].
For `CCOc1ccc(C(=O)Cn2nc3n(CCC(C)C)c(=O)c4ccc(C(=O)NC(C)C)cc4n3c2=O)cc1`, the activity change, negative = inhibition in test [1] was 2.07%; in test [2] it was 0%; in test [3], 0.723%; in test [4], -1.71%; in test [5], 1.96%.
On to `CCCN1C(=O)c2cc(C(=O)NCc3ccc(OCC)cc3)nn2CC1(C)C(=O)NC1CCCC1` (stereo not drawn), for which the activity change, negative = inhibition in test [1] is -5.08%; in test [2] it was 0.6%; in test [3], -3.35%; in test [4], -8.89%; in test [5] it was -7.97%.
Regarding `COc1ccc(Cn2c(=O)c3ccccc3n3c(-c4ccc(C)cc4)nnc23)cc1`, the activity change, negative = inhibition is -2.3% in test [1]; 0% in test [2]; 8.13% in test [3]; 2.22% in test [4]; 1.34% in test [5].
The like results for `Cc1ccc(Cn2c(=O)c3ccccc3n3c(CCC(=O)N4CC=C(c5ccccc5)CC4)nnc23)cc1` were, in that order, -4.71%, 0%, -1.27%, -8.39% and -2.9%.
Regarding `CC(C)Cn1c(=O)c2cc(F)ccc2n2c(SCC(=O)Nc3ccccc3Cl)nnc12`, the activity change, negative = inhibition is -6.12% in test [1]; 0% in test [2]; 5.46% in test [3]; -5.77% in test [4]; 1.26% in test [5].
Consider `CCCCNC(=O)C1CCc2sc(C(=O)N3CCCCC3)cc2C1` (stereo not drawn), for which the activity change, negative = inhibition in test [1] is -3.57%; in test [2], 1.05%; in test [3], -0.156%; in test [4], -6.6%; in test [5], -1.45%.
On to `Cc1ccc(CNC(=O)N2CCCCCNC(=O)[C@@H]3CCC[C@@H]32)cc1`, for which the activity change, negative = inhibition in test [1] was -7.02%; in test [2], -9.08%; in test [3] it was -5.78%; in test [4], -6.75%; in test [5] it was -8.18%.
Turning to `CCOC(=O)CNC(=O)N1Cc2c(sc3c2CCCC3)-n2cccc2C1c1ccc(CC)cc1` (stereo not drawn), the activity change, negative = inhibition in test [1] is -3.9%; in test [2] it was 0%; in test [3], -1.8%; in test [4], -5.7%; in test [5], 2.71%.
On to `Cn1c2c(c3ccccc31)C(C(=O)NCc1ccccc1)N(C1CCCCCC1)C(=O)CS2` (stereo not drawn), for which the activity change, negative = inhibition in test [1] came to 5.73%; in test [2], 1.57%; in test [3], 3.85%; in test [4], 2.2%; in test [5], 8.75%.
Turning to `Cc1noc(C)c1[S+](=O)([O-])N1CCc2nc(-c3ccccc3)nc(-c3ccc(Cl)cc3)c2C1`, the activity change, negative = inhibition in test [1] was -5.73%; in test [2] it was -8.14%; in test [3] it was -3.28%; in test [4], -13.8%; in test [5], -7.18%.
For the compound `CC1=CC(=O)C(C(C)C)=C/C1=N/OC(=O)c1ccccc1C`, the activity change, negative = inhibition is 1.19% in test [2], -17.4% in test [4] and -7.5% in test [5].
With `C=Cc1ccc(CSc2nnc3n(CCCOC(C)C)c(=O)c4cc(Cl)ccc4n23)cc1`, the activity change, negative = inhibition in test [1] was -3.69%; in test [2], 0%; in test [3], 1.04%; in test [4], -6.37%; in test [5], 2.84%.
`CC(C)n1c(=O)c2ccc(C(=O)NC3CCCCC3)cc2n2c(=O)n(Cc3ccccc3)nc12`: the activity change, negative = inhibition in test [1] is 0.601%; in test [2], 2.69%; in test [3], 5.4%; in test [4] it was -0.04%; in test [5], -2.26%.
